The results in this text go back to the supplement of paper PMC10369915.

Some of the results follow. Rule as the data show it: active = 3.2 or more and inactive = the rest. Only a few entries rise above the background.
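Also: displayed peptides selected on beads carrying the immobilized SH2 domain, with library peptides lacking any tyrosine serving as negative controls.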

The target in one assay is SHP2 C-SH2 domain E139D. The assay is described as follows: enrichment score (SH2-bound / input frequency) (ratio); bacterial display of known human phosphotyrosine sites (pTyr-Var adds point mutants) read by sequencing; higher = stronger binding; tyrosines were phosphorylated by kinases first. As to conditions: peptide library: pTyr-Var.
Consider SIKDKYLTALY [KCNH2_Y611_V612L], for which the enrichment score was inactive: 0.873.

Consider SETSRYLSELF [KCNJ3_Y67_D70E], for which the enrichment score is inactive: 0.844.

SIKDKYVTALC [KCNH2_Y611_Y616C]: the enrichment score was inactive: 0.937.

On to KDFNKYVAFIE [KDM4B_Y31_YF], for which the enrichment score was inactive: 0.957.

On to SIKNKYVTALF [KCNH2_Y611_D609N_YF], for which the enrichment score was inactive: 0.834.

Regarding TLMNAYSSRSH [KIF11_Y231], the enrichment score is inactive: 0.795.

ASNFNYFFHRE [KCNA1_Y413_V408A_YF]: the enrichment score is inactive: 1.22.

Take EWQQIYTFDSG [JUP_Y20_T19I_YF]: the enrichment score is inactive: 1.44.

Turning to RTVDVYFGPQM [KIRREL3_Y332_R336Q], the enrichment score was inactive: 0.96.

With LITILYIGFLG [KCNQ1_Y267_T265I], the enrichment score is active: 3.64.

As for VITTLYIGFLG [KCNQ1_Y267_L262V], the enrichment score is inactive: 2.6.

For the molecule RLRKFHLGKFL [KLB_Y906_Y906H_YF], the enrichment score was inactive: 0.341.

For NFRNTYVNANE [KCNH2_Y475_T473N], the enrichment score is inactive: 1.83.

For PAEPRYRARQR [KCNJ11_Y26], the enrichment score was inactive: 0.236.

For NFRTTYVNANE [KCNH2_Y475], the enrichment score was inactive: 1.33.

In the case of DMDATYRPMYS [JUP_Y701], the enrichment score is inactive: 1.3.

Regarding VVQGLYKSMRK [KBTBD2_Y250_P254R], the enrichment score is inactive: 1.08.

DFRTTYVNANE [KCNH2_Y475_N470D]: the enrichment score is inactive: 1.33.

As to FFLGKYLQEVL [KLB_Y910_YF], the enrichment score was inactive: 3.04.

The next assay concerns the target SHP2 C-SH2 domain wild-type. Described as above. As to conditions: peptide library: pTyr-Var.
SIKDKYLTALY [KCNH2_Y611_V612L]: the enrichment score is inactive: 0.875.

As to SETSRYLSELF [KCNJ3_Y67_D70E], the enrichment score is inactive: 0.665.

For SIKDKYVTALC [KCNH2_Y611_Y616C], the enrichment score is inactive: 0.812.

Consider KDFNKYVAFIE [KDM4B_Y31_YF], for which the enrichment score was inactive: 0.944.

For SIKNKYVTALF [KCNH2_Y611_D609N_YF], the enrichment score was inactive: 0.734.

On to TLMNAYSSRSH [KIF11_Y231], for which the enrichment score is inactive: 0.572.

Consider ASNFNYFFHRE [KCNA1_Y413_V408A_YF], for which the enrichment score is inactive: 1.36.

As to EWQQIYTFDSG [JUP_Y20_T19I_YF], the enrichment score was inactive: 1.03.

RTVDVYFGPQM [KIRREL3_Y332_R336Q]: the enrichment score was inactive: 1.08.

For LITILYIGFLG [KCNQ1_Y267_T265I], the enrichment score is active: 4.42.

For VITTLYIGFLG [KCNQ1_Y267_L262V], the enrichment score is active: 3.31.

For RLRKFHLGKFL [KLB_Y906_Y906H_YF], the enrichment score is inactive: 0.494.

For the molecule NFRNTYVNANE [KCNH2_Y475_T473N], the enrichment score was inactive: 1.82.

PAEPRYRARQR [KCNJ11_Y26]: the enrichment score was inactive: 0.252.

Regarding NFRTTYVNANE [KCNH2_Y475], the enrichment score was inactive: 1.79.

For DMDATYRPMYS [JUP_Y701], the enrichment score was inactive: 0.72.

As for VVQGLYKSMRK [KBTBD2_Y250_P254R], the enrichment score is inactive: 0.639.

DFRTTYVNANE [KCNH2_Y475_N470D]: the enrichment score was inactive: 2.2.

Take FFLGKYLQEVL [KLB_Y910_YF]: the enrichment score is inactive: 2.32.

Another assay addresses SHP2 N-SH2 domain L43F. The assay is described as above. As to conditions: peptide library: pTyr-Var.
Turning to SIKDKYLTALY [KCNH2_Y611_V612L], the enrichment score was inactive: 0.865.

With SETSRYLSELF [KCNJ3_Y67_D70E], the enrichment score was inactive: 0.742.

With SIKDKYVTALC [KCNH2_Y611_Y616C], the enrichment score was inactive: 1.02.

Consider KDFNKYVAFIE [KDM4B_Y31_YF], for which the enrichment score was inactive: 0.715.

SIKNKYVTALF [KCNH2_Y611_D609N_YF]: the enrichment score is inactive: 1.14.

For the molecule TLMNAYSSRSH [KIF11_Y231], the enrichment score is inactive: 0.722.

ASNFNYFFHRE [KCNA1_Y413_V408A_YF]: the enrichment score was inactive: 1.26.

EWQQIYTFDSG [JUP_Y20_T19I_YF]: the enrichment score was inactive: 1.19.

Consider RTVDVYFGPQM [KIRREL3_Y332_R336Q], for which the enrichment score was inactive: 1.05.

Turning to LITILYIGFLG [KCNQ1_Y267_T265I], the enrichment score is active: 4.08.

As for VITTLYIGFLG [KCNQ1_Y267_L262V], the enrichment score is active: 3.23.

Take RLRKFHLGKFL [KLB_Y906_Y906H_YF]: the enrichment score was inactive: 0.292.

For NFRNTYVNANE [KCNH2_Y475_T473N], the enrichment score is inactive: 2.

As to PAEPRYRARQR [KCNJ11_Y26], the enrichment score is inactive: 0.222.

Regarding NFRTTYVNANE [KCNH2_Y475], the enrichment score is inactive: 1.16.

DMDATYRPMYS [JUP_Y701]: the enrichment score is inactive: 0.791.

Regarding VVQGLYKSMRK [KBTBD2_Y250_P254R], the enrichment score was inactive: 0.586.

In the case of DFRTTYVNANE [KCNH2_Y475_N470D], the enrichment score was inactive: 0.915.

For the molecule FFLGKYLQEVL [KLB_Y910_YF], the enrichment score was inactive: 3.16.

The target of the next assay is SHP2 N-SH2 domain T42A. The assay is described as above. As to conditions: peptide library: pTyr-Var.
As for SIKDKYLTALY [KCNH2_Y611_V612L], the enrichment score is inactive: 0.807.

With SETSRYLSELF [KCNJ3_Y67_D70E], the enrichment score was inactive: 0.638.

Take SIKDKYVTALC [KCNH2_Y611_Y616C]: the enrichment score was inactive: 0.725.

On to KDFNKYVAFIE [KDM4B_Y31_YF], for which the enrichment score was inactive: 0.804.

In the case of SIKNKYVTALF [KCNH2_Y611_D609N_YF], the enrichment score is inactive: 0.969.

On to TLMNAYSSRSH [KIF11_Y231], for which the enrichment score was inactive: 0.519.

In the case of ASNFNYFFHRE [KCNA1_Y413_V408A_YF], the enrichment score is inactive: 0.973.

With EWQQIYTFDSG [JUP_Y20_T19I_YF], the enrichment score is inactive: 1.2.

For the molecule RTVDVYFGPQM [KIRREL3_Y332_R336Q], the enrichment score is inactive: 0.881.

Turning to LITILYIGFLG [KCNQ1_Y267_T265I], the enrichment score was inactive: 2.89.

As to VITTLYIGFLG [KCNQ1_Y267_L262V], the enrichment score was inactive: 3.12.

Take RLRKFHLGKFL [KLB_Y906_Y906H_YF]: the enrichment score was inactive: 0.269.

For NFRNTYVNANE [KCNH2_Y475_T473N], the enrichment score was inactive: 1.78.

Regarding PAEPRYRARQR [KCNJ11_Y26], the enrichment score was inactive: 0.276.

For NFRTTYVNANE [KCNH2_Y475], the enrichment score is inactive: 2.82.

Take DMDATYRPMYS [JUP_Y701]: the enrichment score is inactive: 0.41.

In the case of VVQGLYKSMRK [KBTBD2_Y250_P254R], the enrichment score was inactive: 0.715.

Consider DFRTTYVNANE [KCNH2_Y475_N470D], for which the enrichment score was inactive: 3.17.

Consider FFLGKYLQEVL [KLB_Y910_YF], for which the enrichment score is inactive: 2.01.

Another assay concerns the target SHP2 N-SH2 domain T52S. Described as above. As to conditions: peptide library: pTyr-Var.
Turning to SIKDKYLTALY [KCNH2_Y611_V612L], the enrichment score is inactive: 0.806.

For the molecule SETSRYLSELF [KCNJ3_Y67_D70E], the enrichment score was inactive: 0.699.

As for SIKDKYVTALC [KCNH2_Y611_Y616C], the enrichment score is inactive: 0.842.

In the case of KDFNKYVAFIE [KDM4B_Y31_YF], the enrichment score was inactive: 0.861.

Turning to SIKNKYVTALF [KCNH2_Y611_D609N_YF], the enrichment score was inactive: 1.35.

In the case of TLMNAYSSRSH [KIF11_Y231], the enrichment score was inactive: 0.752.

As for ASNFNYFFHRE [KCNA1_Y413_V408A_YF], the enrichment score was inactive: 1.05.

On to EWQQIYTFDSG [JUP_Y20_T19I_YF], for which the enrichment score was inactive: 1.25.

For RTVDVYFGPQM [KIRREL3_Y332_R336Q], the enrichment score is inactive: 0.955.

Take LITILYIGFLG [KCNQ1_Y267_T265I]: the enrichment score is active: 3.9.

As for VITTLYIGFLG [KCNQ1_Y267_L262V], the enrichment score is inactive: 2.7.

In the case of RLRKFHLGKFL [KLB_Y906_Y906H_YF], the enrichment score is inactive: 0.375.

NFRNTYVNANE [KCNH2_Y475_T473N]: the enrichment score is inactive: 1.64.

On to PAEPRYRARQR [KCNJ11_Y26], for which the enrichment score is inactive: 0.226.

Turning to NFRTTYVNANE [KCNH2_Y475], the enrichment score was inactive: 1.31.

For the molecule DMDATYRPMYS [JUP_Y701], the enrichment score was inactive: 0.61.

In the case of VVQGLYKSMRK [KBTBD2_Y250_P254R], the enrichment score was inactive: 0.795.

In the case of DFRTTYVNANE [KCNH2_Y475_N470D], the enrichment score was inactive: 1.36.

In the case of FFLGKYLQEVL [KLB_Y910_YF], the enrichment score was inactive: 2.73.

A further assay deals with SHP2 N-SH2 domain wild-type. The assay is described as above. As to conditions: peptide library: pTyr-Var.
Take SIKDKYLTALY [KCNH2_Y611_V612L]: the enrichment score is inactive: 1.11.

SETSRYLSELF [KCNJ3_Y67_D70E]: the enrichment score was inactive: 0.778.

As for SIKDKYVTALC [KCNH2_Y611_Y616C], the enrichment score was inactive: 0.946.

For KDFNKYVAFIE [KDM4B_Y31_YF], the enrichment score was inactive: 0.826.

For the molecule SIKNKYVTALF [KCNH2_Y611_D609N_YF], the enrichment score is inactive: 0.782.

For the molecule TLMNAYSSRSH [KIF11_Y231], the enrichment score is inactive: 0.703.

Take ASNFNYFFHRE [KCNA1_Y413_V408A_YF]: the enrichment score was inactive: 1.23.

EWQQIYTFDSG [JUP_Y20_T19I_YF]: the enrichment score was inactive: 1.52.

Regarding RTVDVYFGPQM [KIRREL3_Y332_R336Q], the enrichment score was inactive: 1.75.

Turning to LITILYIGFLG [KCNQ1_Y267_T265I], the enrichment score is active: 3.89.

As to VITTLYIGFLG [KCNQ1_Y267_L262V], the enrichment score was inactive: 3.18.

Take RLRKFHLGKFL [KLB_Y906_Y906H_YF]: the enrichment score was inactive: 0.375.

With NFRNTYVNANE [KCNH2_Y475_T473N], the enrichment score is inactive: 1.27.

For PAEPRYRARQR [KCNJ11_Y26], the enrichment score was inactive: 0.206.

NFRTTYVNANE [KCNH2_Y475]: the enrichment score was inactive: 1.23.

On to DMDATYRPMYS [JUP_Y701], for which the enrichment score was inactive: 0.683.

Turning to VVQGLYKSMRK [KBTBD2_Y250_P254R], the enrichment score is inactive: 0.662.

Consider DFRTTYVNANE [KCNH2_Y475_N470D], for which the enrichment score is inactive: 1.07.

With FFLGKYLQEVL [KLB_Y910_YF], the enrichment score was inactive: 3.16.
